# Data as given in the supplement of paper PMC8728848.
# The list shows a part of the results.
# B1: PX15618A-bth-503-24-503 (Bacteroides thetaiotaomicron) (protein)
# chain: NKSEDKLSGDDFWAQGNETNAEAFLLSIYNSFRNATMSQRPFLTYSGDMRCAPITAYSTGDKYVAYLANNDMGELRNTYPDDARGGLIMQWDVFYTAIQDANILLAEIDKVPGMDELKRSRFKAEAIFMRSLSYFFIVRAFGDVPYYTNAYNEAPLPRTNMVIVLQNCLADLQPLLDDDPGAEVLPWSYSSYSSKGIRASRGSVIALMMHINLWLVQFDAQNKEQYYRNVVSLGEELERNNGAYSLLDINRSSVIFAGGSDEGLFEIAQNINFNEIFMMNAKFSDNVSYSCLNKSMPLFCYSGDYLMTLFPMYEDDARKELWFDEKIYSTSVSSSAPKEIKKFWNIDTYGNGTITSNSGNQIVFRYAGALLLYAEALAALGTNDTKACELLNRVRNRAHASEINTSGSELMDAIFWERCRELIGEGHYYYDLVRTGKVYNRNYCMNPMTRTNFNVGAWTWPIHRNALKNNTQIGLNLFWE
# Legend:
# Experiment in all cases: glycan array binding signal (z-score within array); higher = stronger binding
# Settings in all cases: glycan notation: IUPAC condensed, linker removed
# Gal3S(b1-4)Glc = molecular target: Gal3S(b1-4)Glc
# Method in brief: (§1)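 Glycan array data were curated from 3228 arrays in the Consortium for Functional Glycomics database and kept only where the protein sequence was available. Glycan names were converted to IUPAC-condensed notation, and columns mapping to the same glycan were averaged. The binding signal is a within-array Z-score, averaged across arrays of the same protein sequence at different concentrations or buffers and across linkers. Negative Z-scores can be read as non-binding.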
# Gal3S(b1-4)Glc6S = molecular target: Gal3S(b1-4)Glc6S
# Method in brief: as §1
# Gal3S(b1-4)GlcNAc = molecular target: Gal3S(b1-4)GlcNAc
# Method in brief: as §1
# [1] = molecular target: Gal3S(b1-4)[Fuc(a1-3)]Glc6S
# Method in brief: as §1
# [2] = molecular target: Gal3S(b1-4)[Fuc(a1-3)]GlcNAc
# Method in brief: as §1
# [3] = molecular target: Gal3S(b1-4)[Fuc(a1-3)]GlcNAc6S
# Method in brief: as §1
# Gal3S4S(b1-4)GlcNAc = molecular target: Gal3S4S(b1-4)GlcNAc
# Method in brief: as §1
# Gal3S6S(b1-4)GlcNAc = molecular target: Gal3S6S(b1-4)GlcNAc
# Method in brief: as §1
# Gal3S6S(b1-4)GlcNAc6S = molecular target: Gal3S6S(b1-4)GlcNAc6S
# Method in brief: as §1
# Gal4S(b1-4)GlcNAc = molecular target: Gal4S(b1-4)GlcNAc
# Method in brief: as §1
# Gal4S6S(b1-4)GlcNAc = molecular target: Gal4S6S(b1-4)GlcNAc
# Method in brief: as §1
# Gal6P(b1-4)GlcNAc = molecular target: Gal6P(b1-4)GlcNAc
# Method in brief: as §1
# Gal6S(b1-3)GlcNAc = molecular target: Gal6S(b1-3)GlcNAc
# Method in brief: as §1
# Gal6S(b1-3)GlcNAc6S = molecular target: Gal6S(b1-3)GlcNAc6S
# Method in brief: as §1
# Gal6S(b1-4)Glc = molecular target: Gal6S(b1-4)Glc
# Method in brief: as §1
# Gal6S(b1-4)Glc6S = molecular target: Gal6S(b1-4)Glc6S
# Method in brief: as §1
# Gal6S(b1-4)GlcNAc = molecular target: Gal6S(b1-4)GlcNAc
# Method in brief: as §1
# Gal6S(b1-4)GlcNAc6S = molecular target: Gal6S(b1-4)GlcNAc6S
# Method in brief: as §1
# GalNAc(a1-3)Gal = molecular target: GalNAc(a1-3)Gal
# Method in brief: as §1
# GalNAc(a1-3)GalNAc = molecular target: GalNAc(a1-3)GalNAc
# Method in brief: as §1
# [4] = molecular target: GalNAc(a1-3)GalNAc(b1-3)Gal(a1-4)Gal(b1-4)Glc
# Method in brief: as §1
# [5] = molecular target: GalNAc(a1-3)GalNAc(b1-3)Gal(a1-4)Gal(b1-4)GlcNAc
# Method in brief: as §1
# GalNAc(b1-3)Gal = molecular target: GalNAc(b1-3)Gal
# Method in brief: as §1
# [6] = molecular target: GalNAc(b1-3)Gal(a1-4)Gal(b1-4)GlcNAc
# Method in brief: as §1
# [7] = molecular target: GalNAc(b1-3)Gal(a1-4)Gal(b1-4)GlcNAc(b1-3)Gal(b1-4)Glc
# Method in brief: as §1
# [8] = molecular target: GalNAc(b1-3)Gal(a1-6)Gal(b1-4)Glc
# Method in brief: as §1
# GalNAc(b1-3)GalNAc = molecular target: GalNAc(b1-3)GalNAc
# Method in brief: as §1
# GalNAc(b1-3)GlcNAc = molecular target: GalNAc(b1-3)GlcNAc
# Method in brief: as §1
# GalNAc(b1-4)Gal(b1-4)Glc = molecular target: GalNAc(b1-4)Gal(b1-4)Glc
# Method in brief: as §1
# GalNAc(b1-4)GlcNAc = molecular target: GalNAc(b1-4)GlcNAc
# Method in brief: as §1
# [9] = molecular target: GalNAc(b1-4)GlcNAc(b1-2)Man
# Method in brief: as §1
# [10] = molecular target: GalNAc(b1-4)GlcNAc(b1-2)Man(a1-3)[GalNAc(b1-4)GlcNAc(b1-2)Man(a1-6)]Man(b1-4)GlcNAc(b1-4)GlcNAc
# Method in brief: as §1
# [11] = molecular target: GalNAc(b1-4)GlcNAc(b1-3)GalNAc(b1-4)GlcNAc
# Method in brief: as §1
# GalNAc(b1-4)GlcNAc6S = molecular target: GalNAc(b1-4)GlcNAc6S
# Method in brief: as §1
# GalNAc(b1-6)GalNAc = molecular target: GalNAc(b1-6)GalNAc
# Method in brief: as §1
# GalNAc3S(b1-4)GlcNAc = molecular target: GalNAc3S(b1-4)GlcNAc
# Method in brief: as §1
# GalNAc3S(b1-4)GlcNAc3S = molecular target: GalNAc3S(b1-4)GlcNAc3S
# Method in brief: as §1
binder,measurement,setting,value
B1,glycan array binding signal (z-score),Gal3S(b1-4)Glc,-0.362
same,glycan array binding signal (z-score),Gal3S(b1-4)Glc6S,-0.24
same,glycan array binding signal (z-score),Gal3S(b1-4)GlcNAc,0
same,glycan array binding signal (z-score),[1],-0.345
same,glycan array binding signal (z-score),[2],-0.052
same,glycan array binding signal (z-score),[3],0.663
same,glycan array binding signal (z-score),Gal3S4S(b1-4)GlcNAc,-0.763
same,glycan array binding signal (z-score),Gal3S6S(b1-4)GlcNAc,3.43
same,glycan array binding signal (z-score),Gal3S6S(b1-4)GlcNAc6S,-0.637
same,glycan array binding signal (z-score),Gal4S(b1-4)GlcNAc,-0.744
same,glycan array binding signal (z-score),Gal4S6S(b1-4)GlcNAc,0.007
same,glycan array binding signal (z-score),Gal6P(b1-4)GlcNAc,-0.181
same,glycan array binding signal (z-score),Gal6S(b1-3)GlcNAc,-0.189
same,glycan array binding signal (z-score),Gal6S(b1-3)GlcNAc6S,0.358
same,glycan array binding signal (z-score),Gal6S(b1-4)Glc,0.311
same,glycan array binding signal (z-score),Gal6S(b1-4)Glc6S,0.559
same,glycan array binding signal (z-score),Gal6S(b1-4)GlcNAc,0.345
same,glycan array binding signal (z-score),Gal6S(b1-4)GlcNAc6S,-0.45
same,glycan array binding signal (z-score),GalNAc(a1-3)Gal,0.872
same,glycan array binding signal (z-score),GalNAc(a1-3)GalNAc,-0.657
same,glycan array binding signal (z-score),[4],-0.52
same,glycan array binding signal (z-score),[5],-0.025
same,glycan array binding signal (z-score),GalNAc(b1-3)Gal,-0.131
same,glycan array binding signal (z-score),[6],0.057
same,glycan array binding signal (z-score),[7],0.79
same,glycan array binding signal (z-score),[8],-0.587
same,glycan array binding signal (z-score),GalNAc(b1-3)GalNAc,-0.605
same,glycan array binding signal (z-score),GalNAc(b1-3)GlcNAc,1.02
same,glycan array binding signal (z-score),GalNAc(b1-4)Gal(b1-4)Glc,0.391
same,glycan array binding signal (z-score),GalNAc(b1-4)GlcNAc,-0.273
same,glycan array binding signal (z-score),[9],0.15
same,glycan array binding signal (z-score),[10],1.3
same,glycan array binding signal (z-score),[11],0.04
same,glycan array binding signal (z-score),GalNAc(b1-4)GlcNAc6S,-0.056
same,glycan array binding signal (z-score),GalNAc(b1-6)GalNAc,0.148
same,glycan array binding signal (z-score),GalNAc3S(b1-4)GlcNAc,0.505
same,glycan array binding signal (z-score),GalNAc3S(b1-4)GlcNAc3S,-0.483
